{"source": "patent US9150659B2", "about": "“Anti-tace antibody molecules and their uses” (priority 2011, dated 2015)", "key": {"[1]": {"biological_target": "T1, cell surface TACE (Homo sapiens, UniProt P78536)", "T1 construct": "endogenous in cells; host or cells: TOV21G, IGROV1, PC3, HeLa (HeLa stably over-expressing the substrate HB-EGF-alkaline phosphatase)", "T1 sequence (P78536 215-824)": "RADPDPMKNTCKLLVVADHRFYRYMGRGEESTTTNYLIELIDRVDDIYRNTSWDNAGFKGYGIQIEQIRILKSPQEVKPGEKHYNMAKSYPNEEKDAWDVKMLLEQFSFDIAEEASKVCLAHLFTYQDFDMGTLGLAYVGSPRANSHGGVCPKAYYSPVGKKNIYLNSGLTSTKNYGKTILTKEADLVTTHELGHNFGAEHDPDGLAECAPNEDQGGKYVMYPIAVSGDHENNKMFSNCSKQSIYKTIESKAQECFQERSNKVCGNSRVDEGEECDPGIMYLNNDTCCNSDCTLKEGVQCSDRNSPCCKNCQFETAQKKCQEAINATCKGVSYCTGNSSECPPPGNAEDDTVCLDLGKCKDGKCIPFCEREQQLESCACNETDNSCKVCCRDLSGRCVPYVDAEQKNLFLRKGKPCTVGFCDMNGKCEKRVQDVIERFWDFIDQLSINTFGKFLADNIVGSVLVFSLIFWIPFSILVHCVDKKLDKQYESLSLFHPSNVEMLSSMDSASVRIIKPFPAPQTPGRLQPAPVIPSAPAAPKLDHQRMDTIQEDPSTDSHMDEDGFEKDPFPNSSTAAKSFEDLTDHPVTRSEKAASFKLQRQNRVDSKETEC", "assay": "TACE cell surface shedding assay, HB-EGF-AP, HeLa", "format": "cell-based", "settings": "PMA stimulated HeLa HB-EGF-AP", "protocol": "Each well was stimulated with […] phorbol 12-myristate 13-acetate (PMA) for and supernatants were harvested after 1 hour. Soluble TNF-α, TGF-α and Amphiregulin were quantified by sandwich ELISA (R&D System Duoset) and HB-EGF alkaline phosphatase was measured as described in Willems et al (2010)."}, "[2]": {"biological_target": "T2, Recombinant human ADAM10 ectodomain (Homo sapiens, UniProt O14672)", "T2 construct": "Recombinant human ADAM10 ectodomain", "T2 sequence (O14672 214-672 limits assumed)": "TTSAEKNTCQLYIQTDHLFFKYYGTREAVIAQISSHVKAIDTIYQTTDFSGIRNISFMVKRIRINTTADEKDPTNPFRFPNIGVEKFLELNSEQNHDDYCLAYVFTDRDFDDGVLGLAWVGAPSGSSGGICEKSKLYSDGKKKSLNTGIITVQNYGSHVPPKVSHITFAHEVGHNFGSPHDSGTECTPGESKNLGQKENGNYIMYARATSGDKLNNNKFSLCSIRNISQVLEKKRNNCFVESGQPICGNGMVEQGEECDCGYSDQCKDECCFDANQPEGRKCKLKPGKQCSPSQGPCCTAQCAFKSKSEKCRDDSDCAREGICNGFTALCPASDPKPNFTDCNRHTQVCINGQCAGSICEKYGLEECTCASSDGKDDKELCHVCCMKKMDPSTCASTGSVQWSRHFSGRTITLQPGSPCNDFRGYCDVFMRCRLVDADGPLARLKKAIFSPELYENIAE", "assay": "ADAM10 quench fluorescent peptide cleavage assay", "format": "biochemical", "settings": "titrated concentrations"}}, "data": [{"molecule": "D1(A12) FAb: monovalent human FAb; heavy chain SEQ ID NO: 11, light chain SEQ ID NO: 12 (antibody, listed as Homo sapiens) heavy: EVQLVESGGGLVRPGGSLRLSCAASGFTFSSYAMSWVRQAPGKGLEWVSAISGSGGSTYYADSVKGRFTISRDNTKNSLYLQMTSLRADDTAFYYCVKDFGPGYGTGWFDYWGPGTLVTVSAASTKGPSVFPLAPSSKSTSGGTAALGCLVKDYFPEPVTVSWNSGALTSGVHTFPAVLQSSGLYSLSSVVTVPSSSLGTQTYICNVNHKPSNTKVDKKVEPKSC light: SDIQMTQSPSSLSASVGDRVTITCRASQSISSYLNWYQQKPGKAPKLLIHDASSLQSGVPSRFSGSGSGTDFTLTISSLQPEDFATYYCQQSFSIPLTFGGGTKMDIKRTVAAPSVFIFPPSDEQLKSGTASVVCLLNNFYPREAKVQWKVDNALQSGNSQESVTEQDSKDSTYSLSSTLTLSKADYEKHKVYACEVTHQGLSSPVTKSFNRGEC", "values": [{"measurement": "inhibitory profile of FAb compared with IgG1", "setting": "[1]", "value": "comparable inhibitory profile to the IgG1"}, {"measurement": "effect on ADAM10 proteolytic activity", "setting": "[2]", "value": "no effect"}]}]}
